Whole data set: some 33,000 sequences, median “E-score (-0.5 to 0.5)” near -0.016, cut for the highest 2% near 0.31. The list shows a part of the results.
Target: Cst6 (UniProt P40535)
Test: PBM E-score (8-mer binding enrichment) (E-score (-0.5 to 0.5)); higher = stronger / more preferred TF binding; most listed sequences are background and not binding sites
Conditions: protein concentration: 200 nM; construct: GST-DNA-binding domain
Description: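 Universal 'all 10-mer' protein binding microarrays (Agilent AMADID 015681) probed with GST-tagged S. cerevisiae TFs (full-length or DBD) made by in vitro transcription/translation (PURExpress), about 100-200 nM. Bound TF was detected with fluorescent anti-GST. Each ungapped 8-mer (which stands for itself and its reverse complement) is scored by the PBM enrichment score (E-score), a modified Wilcoxon-Mann-Whitney statistic from -0.5 to +0.5, computed with the Universal PBM Analysis Suite. Scale: above 0.35 generally sequence-specific binding.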

Row | Sequence | PBM E-score
1 | CCGCCCAA | -0.209
2 | ATTTGCAG | 0.078
3 | GCGTTCCA | -0.0973
4 | CAGACGCC | -0.121
5 | CTACCTTA | -0.00472
6 | TACAGGAA | 0.0431
7 | GAGTTCTA | -0.136
8 | ATGATTCG | 0.188
9 | AGCGTGAT | 0.01
10 | GTACGTCA | 0.49
11 | CCTTTCAC | 0.00451
12 | ATTGGCCG | 0.0339
13 | CAACGCTC | 0.0184
14 | CAGAGGAG | -0.0824
15 | CCTTGGCC | -0.357
16 | GCATATTA | 0.186
17 | GCGTTTCC | 0.106
18 | AGTCGTAG | -0.0868
19 | AGTAGACT | -0.18
20 | GAATACTA | 0.192
21 | ATAGGTTA | 0.143
22 | GACGTTCC | 0.0148
23 | TAGCCACA | 0.0365
24 | TCTTCCAA | -0.0464
25 | GACGAGGC | -0.0967

Row | Sequence | PBM E-score
26 | AACACCTT | 0.113
27 | AAACATCG | -0.0657
28 | CATAAAAA | 0.293
29 | CCTAAATC | 0.0457
30 | GGATTCAA | -0.0994
31 | CAGCATAA | 0.0705
32 | ACATTGCT | 0.00283
33 | CGGTCCTA | -0.329
34 | TGGGGAAA | 0.0662
35 | AATTCTAA | 0.206
36 | CTTGTTGA | 0.12
37 | CAGGGCAG | -0.223
38 | AGTATTCG | 0.048
39 | CAAAGTTC | -0.162
40 | CTTATTAA | 0.141
41 | CGGCGGCC | -0.0828
42 | TACTAACA | 0.0701
43 | CATTGTGC | 0.188
44 | GCCCATCC | -0.267
45 | AATCGGCT | 0.124
46 | ACACCGCG | -0.122
47 | CCTGTGAG | 0.00154
48 | GAACCGGC | -0.26
49 | CCTTATCA | 0.245
50 | ACATTCTC | 0.175

Row | Sequence | PBM E-score
51 | ACCCAGAC | -0.115
52 | CGTGCGGA | 0.0478
53 | AATCCGTG | -0.0245
54 | CAGGAGAA | -0.0565
55 | GGTACACA | -0.237
56 | CACAGATG | 0.0492
57 | CTAGGTTC | -0.181
58 | ACTGGCTC | -0.245
59 | AATCAACG | 0.128
60 | ACGTTCGC | -0.0833
61 | CCATGAAC | -0.11
62 | AGAACGGC | 0.118
63 | TATGGACA | 0.0624
64 | AGTTGCAC | -0.25
65 | ATGTTAGC | 0.0356
66 | ACTCAATC | 0.173
67 | TAGTTAGA | 0.0258
68 | CAGGTGCG | 0.00412
69 | AGTCGTGC | -0.314
70 | AGGTCCCC | -0.313
71 | TCCTATAA | 0.0701
72 | CAATAATG | 0.113
73 | GAAGACAA | 0.11
74 | TGAAGAAA | 0.138
75 | GCCTAGAA | -0.125

Row | Sequence | PBM E-score
76 | CTATCCGA | -0.0289
77 | CCACATCC | -0.138
78 | CAGACTGG | -0.235
79 | CCAAATCC | -0.232
80 | GCGAGGGA | -0.223
81 | ACATTTCC | 0.13
82 | ACATGTTG | 0.161
83 | GATTCAGC | -0.0798
84 | ATAGCGTC | 0.138
85 | GCCACGCC | -0.126
86 | CACTTCGA | 0.245
87 | CTACAGGC | -0.226
88 | GGTTGTAC | -0.145
89 | CAAAAATA | 0.274
90 | GTCGAAAC | -0.0882
91 | ATGAACGC | 0.129
92 | GAACCGTA | -0.169
93 | CCGCAGCG | -0.0459
94 | GCGTAAAC | 0.168
95 | CTCGCTGA | -0.0965
96 | ACTTTGGC | -0.252
97 | ACTATCGA | 0.0683
98 | ATAAAACG | 0.243
99 | AGGGGTGA | -0.0823
100 | CAAACGGG | -0.0479

Row | Sequence | PBM E-score
101 | CCTCACAC | -0.028
102 | ACTACTGC | -0.132
103 | CGAGCTCC | -0.122
104 | GTTCCTAA | -0.062
105 | GCATGAGA | 0.0222
106 | ACATTGAC | 0.212
107 | CCAACTCA | -0.023
108 | GGCACAAC | 0.124
109 | CAAAGGTA | -0.0756
110 | TGTTCCAA | 0.108
111 | GCGACCAC | -0.108
112 | AGAACCGA | -0.127
113 | GTACCCAA | -0.145
114 | CACATCTA | 0.252
115 | GACTAGTC | -0.332
116 | AGTATACC | 0.0587
117 | CAGAACCC | -0.252
118 | CTGCCCTC | -0.253
119 | AATGTCCC | -0.249
120 | AGACCGGC | -0.168
121 | AATCCGAA | -0.0449
122 | GCATTTCA | 0.0358
123 | GATATGGA | 0.154
124 | AGGTTCGG | -0.224
125 | ATACATTA | 0.19

Row | Sequence | PBM E-score
126 | AGGCGACA | -0.0556
127 | ATCCGTGG | -0.155
128 | AAGCTGGC | -0.0805
129 | CAGGGAAA | -0.143
130 | TACCCTAA | -0.0225
131 | GTGCAACA | -0.192
132 | GTGTGATA | 0.235
133 | AGGTTTAT | 0.0862
134 | CACTTACC | 0.0685
135 | CGGGGAAA | 0.0991
136 | TGCCATAA | 0.00753
137 | GAAGTAAC | 0.146
138 | CGATGTTA | 0.131
139 | CCTGTGCG | -0.0438
140 | CAACTTAA | 0.113
141 | AGTAGAAA | 0.186
142 | AAGGAGCG | -0.205
143 | GACGTTAC | 0.315
144 | GTCTGGAA | -0.135
145 | AATTCACC | 0.0605
146 | GATATCCC | -0.163
147 | AAGATGGC | -0.00831
148 | ATGATCGA | 0.166
149 | ACGGATCC | -0.0118
150 | CAATGTGC | 0.0457

Row | Sequence | PBM E-score
151 | GATATGCA | -0.0755
152 | AGGGTACC | -0.3
153 | GCGACATA | 0.0207
154 | CTCAGTTC | -0.108
155 | ATAATGAG | 0.0695
156 | CACACCTG | -0.186
157 | GCCTACCA | -0.209
158 | AGGCACGG | 0.173
159 | CCATGCTA | -0.155
160 | ATCTGTCG | 0.0445
161 | ATCCCTTA | -0.0902
162 | TCTTCAAA | 0.0166
163 | GCATAGTA | 0.033
164 | AAGACGTG | -0.06
165 | AGATTGAT | 0.159
166 | GCCGTCTA | 0.105
167 | CATGTTGA | 0.273
168 | GTGCATGA | 0.181
169 | ACCATAGA | 0.0571
170 | CGTCGATC | 0.174
171 | CTCATCGC | -0.0477
172 | CTAACAAA | 0.173

— the supplement of paper PMC3334620
